Reference: article PMC9911399, “Two distinct binding modes provide the RNA-binding protein RbFox with extraordinary sequence specificity”
Residue numbers refer to the chain shown, from its start. The list shows a part of the results.

T1: RBFOX1 RRM RbFoxmut (Fox-RRM*) (Homo sapiens, UniProt Q9NWB1 109-208, R118D;E147R;N151S;E152T)
T1 sequence: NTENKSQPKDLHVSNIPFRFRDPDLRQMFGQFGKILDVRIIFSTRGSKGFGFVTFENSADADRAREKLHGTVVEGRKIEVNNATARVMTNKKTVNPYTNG

B1: CGCUCUG (DNA:RNA)
RNA: GGGAGACCGGAAUUCAGAUUGUCCCGCUCUGUUAAAUCCCGUCGUAGCCACCA
DNA 1: CAATCTGAATTCCGGTCTCCC
DNA 2: TGGTGGCTACGACGGGATT
B2: ACGGAAG (DNA:RNA)
RNA: B1 RNA with C25A, G26C, C27G, U28G, C29A, U30A
DNA 1: CAATCTGAATTCCGGTCTCCC
DNA 2: TGGTGGCTACGACGGGATT
B3: CGAAUUG (DNA:RNA)
RNA: B1 RNA with C27A, U28A, C29U
DNA 1: CAATCTGAATTCCGGTCTCCC
DNA 2: TGGTGGCTACGACGGGATT
B4: AAGUUCC (DNA:RNA)
RNA: B1 RNA with C25A, G26A, C27G, C29U, U30C, G31C
DNA 1: CAATCTGAATTCCGGTCTCCC
DNA 2: TGGTGGCTACGACGGGATT
B5: UAUCCGU (DNA:RNA)
RNA: B1 RNA with C25U, G26A, C27U, U28C, U30G, G31U
DNA 1: CAATCTGAATTCCGGTCTCCC
DNA 2: TGGTGGCTACGACGGGATT
B6: CUAUAGU (DNA:RNA)
RNA: B1 RNA with G26U, C27A, C29A, U30G, G31U
DNA 1: CAATCTGAATTCCGGTCTCCC
DNA 2: TGGTGGCTACGACGGGATT
B7: UGUCAAC (DNA:RNA)
RNA: B1 RNA with C25U, C27U, U28C, C29A, U30A, G31C
DNA 1: CAATCTGAATTCCGGTCTCCC
DNA 2: TGGTGGCTACGACGGGATT
B8: ACGGAUA (DNA:RNA)
RNA: B1 RNA with C25A, G26C, C27G, U28G, C29A, G31A
DNA 1: CAATCTGAATTCCGGTCTCCC
DNA 2: TGGTGGCTACGACGGGATT
B9: CUUCUUG (DNA:RNA)
RNA: B1 RNA with G26U, C27U, U28C, C29U
DNA 1: CAATCTGAATTCCGGTCTCCC
DNA 2: TGGTGGCTACGACGGGATT
B10: GGGGACG (DNA:RNA)
RNA: B1 RNA with C25G, C27G, U28G, C29A, U30C
DNA 1: CAATCTGAATTCCGGTCTCCC
DNA 2: TGGTGGCTACGACGGGATT
B11: CGCGCUU (DNA:RNA)
RNA: B1 RNA with U28G, G31U
DNA 1: CAATCTGAATTCCGGTCTCCC
DNA 2: TGGTGGCTACGACGGGATT
B12: GCGGGGC (DNA:RNA)
RNA: GGGAGACCGGAAUUCAGAUUGUCCGCGGGGCUUAAAUCCCGUCGUAGCCACCA
DNA 1: CAATCTGAATTCCGGTCTCCC
DNA 2: TGGTGGCTACGACGGGATT
B13: UGCUUCC (DNA:RNA)
RNA: B1 RNA with C25U, C29U, U30C, G31C
DNA 1: CAATCTGAATTCCGGTCTCCC
DNA 2: TGGTGGCTACGACGGGATT
B14: GAGUUCA (DNA:RNA)
RNA: B12 RNA with C26A, G28U, G29U, G30C, C31A
DNA 1: CAATCTGAATTCCGGTCTCCC
DNA 2: TGGTGGCTACGACGGGATT
B15: UUUACCG (DNA:RNA)
RNA: B1 RNA with C25U, G26U, C27U, U28A, U30C
DNA 1: CAATCTGAATTCCGGTCTCCC
DNA 2: TGGTGGCTACGACGGGATT
B16: CGGCGGC (DNA:RNA)
RNA: B12 RNA with G25C, C26G, G28C
DNA 1: CAATCTGAATTCCGGTCTCCC
DNA 2: TGGTGGCTACGACGGGATT
B17: UUUGCGG (DNA:RNA)
RNA: B1 RNA with C25U, G26U, C27U, U28G, U30G
DNA 1: CAATCTGAATTCCGGTCTCCC
DNA 2: TGGTGGCTACGACGGGATT
B18: GAUACAA (DNA:RNA)
RNA: B1 RNA with C25G, G26A, C27U, U28A, U30A, G31A
DNA 1: CAATCTGAATTCCGGTCTCCC
DNA 2: TGGTGGCTACGACGGGATT
B19: CCACCUA (DNA:RNA)
RNA: B1 RNA with G26C, C27A, U28C, G31A
DNA 1: CAATCTGAATTCCGGTCTCCC
DNA 2: TGGTGGCTACGACGGGATT
B20: AAGCAAG (DNA:RNA)
RNA: B1 RNA with C25A, G26A, C27G, U28C, C29A, U30A
DNA 1: CAATCTGAATTCCGGTCTCCC
DNA 2: TGGTGGCTACGACGGGATT
B21: AACCCCA (DNA:RNA)
RNA: B1 RNA with C25A, G26A, U28C, U30C, G31A
DNA 1: CAATCTGAATTCCGGTCTCCC
DNA 2: TGGTGGCTACGACGGGATT
B22: GAUCGGU (DNA:RNA)
RNA: B12 RNA with C26A, G27U, G28C, C31U
DNA 1: CAATCTGAATTCCGGTCTCCC
DNA 2: TGGTGGCTACGACGGGATT
B23: ACGUGGC (DNA:RNA)
RNA: B12 RNA with G25A, G28U
DNA 1: CAATCTGAATTCCGGTCTCCC
DNA 2: TGGTGGCTACGACGGGATT
B24: GGACAGA (DNA:RNA)
RNA: B12 RNA with C26G, G27A, G28C, G29A, C31A
DNA 1: CAATCTGAATTCCGGTCTCCC
DNA 2: TGGTGGCTACGACGGGATT
B25: UUGCCGG (DNA:RNA)
RNA: B1 RNA with C25U, G26U, C27G, U28C, U30G
DNA 1: CAATCTGAATTCCGGTCTCCC
DNA 2: TGGTGGCTACGACGGGATT
B26: GUUGUUU (DNA:RNA)
RNA: B12 RNA with C26U, G27U, G29U, G30U, C31U
DNA 1: CAATCTGAATTCCGGTCTCCC
DNA 2: TGGTGGCTACGACGGGATT
B27: GUUGAGA (DNA:RNA)
RNA: B12 RNA with C26U, G27U, G29A, C31A
DNA 1: CAATCTGAATTCCGGTCTCCC
DNA 2: TGGTGGCTACGACGGGATT
B28: ACUUGAU (DNA:RNA)
RNA: B12 RNA with G25A, G27U, G28U, G30A, C31U
DNA 1: CAATCTGAATTCCGGTCTCCC
DNA 2: TGGTGGCTACGACGGGATT
B29: UUGAAUG (DNA:RNA)
RNA: B1 RNA with C25U, G26U, C27G, U28A, C29A
DNA 1: CAATCTGAATTCCGGTCTCCC
DNA 2: TGGTGGCTACGACGGGATT
B30: CACACAA (DNA:RNA)
RNA: B1 RNA with G26A, U28A, U30A, G31A
DNA 1: CAATCTGAATTCCGGTCTCCC
DNA 2: TGGTGGCTACGACGGGATT
B31: GGGGGCU (DNA:RNA)
RNA: B12 RNA with C26G, G30C, C31U
DNA 1: CAATCTGAATTCCGGTCTCCC
DNA 2: TGGTGGCTACGACGGGATT

target: T1, RBFOX1 RRM RbFoxmut (Fox-RRM*); assay: EMSA; HiTS-Eq, 1 nM pool, 10 min; buffer printed only for the single-RNA assays: 10 mM Tris pH 7.5, 150 mM NaCl, 3.4 mM EDTA, 0.001% NP-40, 30 C; details: tags: His6 N-terminal (pET28a); label: 5' 32P
Method in brief: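 These values rest on relative association constants, computed from read-count changes of each RNA species versus the control reaction and normalised to the cognate motif. Reads came from free RNA recovered by 8% native PAGE after purified RbFox RRM (wild type or mutant) at increasing concentrations was equilibrated for 10 min in 50 µL with 1 nM of a 5′-radiolabelled pool with 7 randomized nucleotides and DNA-annealed flanks.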

**Q.** Which binding signal does the source give for B1 here?
**A.** 0.0697 KA relative to UGCAUGU

**Q.** Which binding signal does the source give for B2 here?
**A.** 0.0981 KA relative to UGCAUGU

**Q.** Which binding signal does the source give for B3 here?
**A.** 0.141 KA relative to UGCAUGU

**Q.** For B4, which binding signal is on record?
**A.** 0.0389 KA relative to UGCAUGU

**Q.** How did the binding signal turn out when B5 was run?
**A.** 0.086 KA relative to UGCAUGU

**Q.** For B6, which binding signal is on record?
**A.** 0.0923 KA relative to UGCAUGU

**Q.** With B7 as the binder, how does the binding signal read?
**A.** 0.074 KA relative to UGCAUGU

**Q.** B8 was tested. Which binding signal did it give?
**A.** 0.0922 KA relative to UGCAUGU

**Q.** For B9, which binding signal is on record?
**A.** 0.119 KA relative to UGCAUGU

**Q.** With B10 as the binder, how does the binding signal read?
**A.** 0.129 KA relative to UGCAUGU

**Q.** Which binding signal does the source give for B11 here?
**A.** 0.1 KA relative to UGCAUGU

**Q.** With B12 as the binder, how does the binding signal read?
**A.** 0.116 KA relative to UGCAUGU

**Q.** With B13 as the binder, how does the binding signal read?
**A.** 0.0975 KA relative to UGCAUGU

**Q.** B14 was tested. Which binding signal did it give?
**A.** 0.0974 KA relative to UGCAUGU

**Q.** With B15 as the binder, how does the binding signal read?
**A.** 0.132 KA relative to UGCAUGU

**Q.** For B16, which binding signal is on record?
**A.** 0.0901 KA relative to UGCAUGU

**Q.** For B17, which binding signal is on record?
**A.** 0.0855 KA relative to UGCAUGU

**Q.** Which binding signal does the source give for B18 here?
**A.** 0.0401 KA relative to UGCAUGU

**Q.** With B19 as the binder, how does the binding signal read?
**A.** 0.142 KA relative to UGCAUGU

**Q.** For B20, which binding signal is on record?
**A.** 0.103 KA relative to UGCAUGU

**Q.** B21 was tested. Which binding signal did it give?
**A.** 0.0673 KA relative to UGCAUGU

**Q.** For B22, which binding signal is on record?
**A.** 0.15 KA relative to UGCAUGU

**Q.** Which binding signal does the source give for B23 here?
**A.** 0.119 KA relative to UGCAUGU

**Q.** How did the binding signal turn out when B24 was run?
**A.** 0.0739 KA relative to UGCAUGU

**Q.** With B25 as the binder, how does the binding signal read?
**A.** 0.0823 KA relative to UGCAUGU

**Q.** For B26, which binding signal is on record?
**A.** 0.0918 KA relative to UGCAUGU

**Q.** B27 was tested. Which binding signal did it give?
**A.** 0.12 KA relative to UGCAUGU

**Q.** How did the binding signal turn out when B28 was run?
**A.** 0.112 KA relative to UGCAUGU

**Q.** For B29, which binding signal is on record?
**A.** 1.17 KA relative to UGCAUGU

**Q.** How did the binding signal turn out when B30 was run?
**A.** 0.0825 KA relative to UGCAUGU

**Q.** With B31 as the binder, how does the binding signal read?
**A.** 0.0841 KA relative to UGCAUGU
